The other results are listed elsewhere or left out. The data describe in vitro nicking of single-stranded DNA by Rep domains (1 h at 37 °C, 3 µM enzyme); the outer parts of the 90-letter strands are left off. Numbers give uncut DNA relative to the enzyme-free pool, as log2; uncut sequences lie near 0, cut ones below; no hit call is given. Reads are scaled to the total, so uncut sequences can rise above 0 when many others are cut.

The test relates to T1, Rep nickase domain of tomato golden mosaic virus.
T1 sequence (residues 1-124 of Rep, tag left off): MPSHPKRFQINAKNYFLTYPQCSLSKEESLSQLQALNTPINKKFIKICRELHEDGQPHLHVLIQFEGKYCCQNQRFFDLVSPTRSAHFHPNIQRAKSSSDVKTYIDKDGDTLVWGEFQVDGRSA
The test is described as follows: uncleaved DNA left, log2 of reads against the no-enzyme library (log2 ratio); higher = less cleavage (more negative = more Rep cleavage of the k-mer); sequences stand for … in CTCGTCCG…ACCGGAGA
As to the method: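 A pool of 90-nt single-stranded DNAs with seven random bases just before the constant AC of the nick site (name = the seven bases) was cut by 3 µM recombinant His6-SUMO-tagged Rep nickase domain (300 nM DNA, 50 mM HEPES pH 8.0, 50 mM NaCl, 1 mM MnCl2, 1 h, 37 °C, three replicates). Uncut DNA was amplified and sequenced.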
As for GCCGGAA, the “uncleaved DNA left (log2)” value was -0.0126.
Consider GCACGCT, for which the “uncleaved DNA left (log2)” value was -0.0806.
As for CAGACCA, the figure is 0.0677; as for GCCAGAT, 0.0797; as for GGCTACG, 0.136.
Take AAGAGCT: the “uncleaved DNA left (log2)” value was 0.0824.
Regarding CTTCTTA, the “uncleaved DNA left (log2)” value is 0.166.
With CATTTCG the figure was -0.0908; with ACTTCCT, -0.0607.
With TTCTAGA the figure was -0.0795; with GGCAAGG, 0.184.
With GTTGAGC the figure was 0.0112; with TGTGCTT, -0.0361; with ATTTGGG, 0.104.
On to TGTCCTA, for which the “uncleaved DNA left (log2)” value is -0.112.
GCCCTGC: the “uncleaved DNA left (log2)” value came to 0.0902.
Turning to GAAGATT, the “uncleaved DNA left (log2)” value turned out to be 0.0941.
As for ACCAGAG, the figure is 0.0489; as for TTAAACT, -0.0588; as for GGCCTGA, 0.0106.
Consider GACGAAG, for which the “uncleaved DNA left (log2)” value is 0.0885.
As for AGAGAAT, the figure is 0.157.
As for CAGCCAA, the figure is -0.0457.
With ACCAACG the figure was -0.0622.
On to CGGCATA, for which the “uncleaved DNA left (log2)” value worked out at 0.00653.
As for CATAGAG, the figure is 0.08; as for CAGAAAC, 0.153.
With AATTTCT the figure was -0.188; with TGTACAT, -0.0191.
As for CGCGTAC, the figure is -0.116; as for ATGGTTT, 0.112; as for TTGACTG, -0.078.
Turning to GATAGCC, the “uncleaved DNA left (log2)” value was -0.0508.
As for CTGACAC, the “uncleaved DNA left (log2)” value is -0.11.
For CGGTGTT, the “uncleaved DNA left (log2)” value is -0.299.
With TTGCTGA the figure was 0.00217; with ACGTGGG, 0.0428.
With AATTTCA the figure was -0.0852; with GGAGGCT, 0.162.
For the sequence CGATGAA, the “uncleaved DNA left (log2)” value was -0.0433.

(Values after the supplement of paper PMC7826260.)
